Measured values taken from article PMC4749553 (2015).
No constants are given. Whether binding was seen depends on the method and setting. For part of these data: Binding seen in cells or lysates may run through a third protein. Some entries that bind do so weakly or less than the wild type. For part of these data: Where a sequence is shown, tags or fusion partners need not be part of it. Each block holds one molecule with its values, some of them ahead of it.

Protein sequences, listed by entry. Tags and fused reporters are not part of them. Residues count along the entry.
UniProt P00830, residues 34-511: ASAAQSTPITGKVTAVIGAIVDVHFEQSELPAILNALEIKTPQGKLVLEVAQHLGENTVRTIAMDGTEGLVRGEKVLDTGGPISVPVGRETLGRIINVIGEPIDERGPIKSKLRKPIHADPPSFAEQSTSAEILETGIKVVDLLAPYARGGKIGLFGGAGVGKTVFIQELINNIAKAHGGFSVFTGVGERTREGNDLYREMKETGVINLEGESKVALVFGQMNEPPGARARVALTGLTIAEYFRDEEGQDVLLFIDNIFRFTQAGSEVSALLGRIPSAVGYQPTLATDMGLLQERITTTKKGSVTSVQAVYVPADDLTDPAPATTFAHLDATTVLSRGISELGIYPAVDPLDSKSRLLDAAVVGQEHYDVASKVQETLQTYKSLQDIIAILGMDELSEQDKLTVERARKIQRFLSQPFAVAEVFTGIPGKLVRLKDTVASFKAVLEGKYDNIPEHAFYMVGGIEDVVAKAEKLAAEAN
UniProt P0CS90, residues 24-654: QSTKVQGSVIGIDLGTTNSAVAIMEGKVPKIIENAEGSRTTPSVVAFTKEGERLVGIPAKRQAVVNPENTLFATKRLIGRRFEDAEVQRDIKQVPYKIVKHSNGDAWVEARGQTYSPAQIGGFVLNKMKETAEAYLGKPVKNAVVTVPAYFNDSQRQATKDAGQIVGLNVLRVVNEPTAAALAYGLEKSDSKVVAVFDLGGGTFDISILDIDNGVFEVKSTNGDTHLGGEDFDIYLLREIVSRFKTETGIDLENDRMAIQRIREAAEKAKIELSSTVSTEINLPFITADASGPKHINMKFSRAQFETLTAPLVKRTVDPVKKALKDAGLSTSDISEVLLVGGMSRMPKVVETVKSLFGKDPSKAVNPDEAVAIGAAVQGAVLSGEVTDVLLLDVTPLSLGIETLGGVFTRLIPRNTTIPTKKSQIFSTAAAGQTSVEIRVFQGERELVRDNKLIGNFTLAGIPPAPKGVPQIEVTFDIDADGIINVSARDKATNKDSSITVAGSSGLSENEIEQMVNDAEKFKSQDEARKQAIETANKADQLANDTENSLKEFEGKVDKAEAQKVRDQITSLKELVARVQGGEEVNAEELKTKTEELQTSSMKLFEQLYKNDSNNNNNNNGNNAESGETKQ

Legend:
[1] = target: T1, Tim44(43–431), recombinant full-length mature Tim44 (yeast (S. cerevisiae)) (UniProt Q01852); experiment: pull-down; purified Tim44 constructs covalently coupled to CNBr-Sepharose beads; wild-type mitochondria solubilized with 0.5% Triton X-100 in 20 mM Tris/HCl pH 8.0, 80 mM KCl, 10% glycerol at 1 mg/mL; 30 min at 4°C; immunoblotting; only the target purified
T1 sequence: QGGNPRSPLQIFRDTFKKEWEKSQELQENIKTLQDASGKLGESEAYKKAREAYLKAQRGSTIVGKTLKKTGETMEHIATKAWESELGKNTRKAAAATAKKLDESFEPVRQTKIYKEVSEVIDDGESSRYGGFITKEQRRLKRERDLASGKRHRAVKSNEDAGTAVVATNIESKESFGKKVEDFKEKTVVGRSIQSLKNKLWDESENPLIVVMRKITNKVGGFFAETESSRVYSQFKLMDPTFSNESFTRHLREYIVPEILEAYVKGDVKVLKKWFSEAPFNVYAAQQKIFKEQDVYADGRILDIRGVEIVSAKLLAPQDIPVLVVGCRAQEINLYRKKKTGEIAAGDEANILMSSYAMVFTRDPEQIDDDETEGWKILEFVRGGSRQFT

[2] = target: T2, Tim16(Pam16) (S. cerevisiae (endogenous in yeast mitochondria)) (UniProt P42949); experiment: cross-linking; intact mitochondria from FL and N+C cells incubated with the amino group-specific crosslinker DSG; mitochondrial ATP levels altered beforehand where indicated; immunoblotting with antibodies to Tim16 or Tim23
T2 sequence: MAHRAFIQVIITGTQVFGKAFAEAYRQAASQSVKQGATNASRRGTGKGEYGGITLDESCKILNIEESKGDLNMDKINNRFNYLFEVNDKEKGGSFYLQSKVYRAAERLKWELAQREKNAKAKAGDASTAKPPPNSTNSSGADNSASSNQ

[3] = target: T3, Tim44(264–431), recombinant core of the C-terminal domain of Tim44 (yeast (S. cerevisiae)) (UniProt Q01852); experiment: pull-down; purified Tim44 constructs covalently coupled to CNBr-Sepharose beads; wild-type mitochondria solubilized with 0.5% Triton X-100 in 20 mM Tris/HCl pH 8.0, 80 mM KCl, 10% glycerol at 1 mg/mL; 30 min at 4°C; immunoblotting; only the target purified
T3 sequence: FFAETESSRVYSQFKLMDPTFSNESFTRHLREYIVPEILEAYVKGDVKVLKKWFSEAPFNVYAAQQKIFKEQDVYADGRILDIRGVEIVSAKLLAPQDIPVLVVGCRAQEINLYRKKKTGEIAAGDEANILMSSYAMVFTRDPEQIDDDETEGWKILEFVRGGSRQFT

[4] = target: T4, Tim44(43–209), recombinant N-terminal domain of Tim44 (yeast (S. cerevisiae)) (UniProt Q01852); experiment: as above
T4 sequence: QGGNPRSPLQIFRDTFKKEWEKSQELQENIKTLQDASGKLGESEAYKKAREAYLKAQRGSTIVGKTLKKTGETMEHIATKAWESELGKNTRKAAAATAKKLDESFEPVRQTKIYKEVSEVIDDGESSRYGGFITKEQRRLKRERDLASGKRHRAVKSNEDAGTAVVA

[5] = target: T5, His6-Tim44(43–263) (yeast (S. cerevisiae)) (UniProt Q01852); experiment: pull-down; purified His6-Tim44(43–263) incubated with purified Tim44(211–431) for 5 min at 25°C, then NiNTA-agarose beads for 30 min at 4°C; low-salt (20 mM Tris/HCl, 50 mM NaCl, 10 mM imidazole, pH 8.0) or high-salt buffer (300 mM NaCl); eluted with 300 mM imidazole; Coomassie staining; both purified
T5 sequence: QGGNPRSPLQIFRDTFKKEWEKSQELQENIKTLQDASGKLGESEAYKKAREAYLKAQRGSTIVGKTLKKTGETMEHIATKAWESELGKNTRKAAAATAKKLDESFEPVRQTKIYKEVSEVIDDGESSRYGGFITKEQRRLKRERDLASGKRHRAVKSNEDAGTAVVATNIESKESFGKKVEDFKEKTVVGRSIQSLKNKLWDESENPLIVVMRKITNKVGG

[6] = target: T2, Tim16(Pam16) (S. cerevisiae (endogenous in yeast mitochondria)); experiment: native gel or EMSA; BN-PAGE of digitonin-solubilized mitochondria from FL and N+C cells; immunoblotting
[7] = target: T2, Tim16(Pam16) (S. cerevisiae (endogenous in yeast mitochondria)); experiment: co-IP; mitochondria from FL and N+C cells solubilized with digitonin; affinity-purified antibodies to Tim17, Tim23 and Tim16 prebound to Protein A-Sepharose; preimmune antibodies as negative control; immunoblotting
[8] = target: T6, Tim23 (S. cerevisiae (endogenous in yeast mitochondria)) (UniProt P32897); experiment: as above
T6 sequence: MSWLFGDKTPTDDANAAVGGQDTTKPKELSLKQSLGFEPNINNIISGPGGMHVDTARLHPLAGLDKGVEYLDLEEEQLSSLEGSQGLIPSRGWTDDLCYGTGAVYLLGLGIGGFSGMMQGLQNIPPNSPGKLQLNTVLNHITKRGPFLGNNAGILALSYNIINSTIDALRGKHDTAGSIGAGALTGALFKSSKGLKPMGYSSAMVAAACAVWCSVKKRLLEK

[9] = target: T7, Tim17 (S. cerevisiae (endogenous in yeast mitochondria)) (UniProt P39515); experiment: as above
T7 sequence: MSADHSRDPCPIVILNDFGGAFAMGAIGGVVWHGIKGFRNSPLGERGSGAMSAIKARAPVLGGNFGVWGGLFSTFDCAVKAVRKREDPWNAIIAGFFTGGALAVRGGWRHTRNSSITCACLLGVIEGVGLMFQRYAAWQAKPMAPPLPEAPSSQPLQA

[10] = target: T8, Tim16(Pam16) (S. cerevisiae (endogenous in yeast mitochondria)), P42949; experiment: cross-linking; intact mitochondria from FL and N+C cells incubated with the amino group-specific crosslinker DSG; mitochondrial ATP levels altered beforehand where indicated; immunoblotting with antibodies to Tim16 or Tim23; conditions: remark: other sources report otherwise
T8 chain: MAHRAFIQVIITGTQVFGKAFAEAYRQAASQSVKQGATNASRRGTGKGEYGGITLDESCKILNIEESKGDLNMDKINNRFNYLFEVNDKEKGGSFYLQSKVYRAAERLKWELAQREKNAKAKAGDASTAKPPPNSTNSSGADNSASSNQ

[11] = target: T6, Tim23 (S. cerevisiae (endogenous in yeast mitochondria)); experiment: as above
[12] = target: T9, His9-tagged N-terminal domain of Tim44 in His9N+C mitochondria (yeast (S. cerevisiae)) (UniProt Q01852); experiment: pull-down; His9N+C (and N+C) mitochondria solubilized with digitonin-containing buffer, NiNTA-agarose beads at 4°C; immunoblotting with antibodies to Tim44
T9 sequence: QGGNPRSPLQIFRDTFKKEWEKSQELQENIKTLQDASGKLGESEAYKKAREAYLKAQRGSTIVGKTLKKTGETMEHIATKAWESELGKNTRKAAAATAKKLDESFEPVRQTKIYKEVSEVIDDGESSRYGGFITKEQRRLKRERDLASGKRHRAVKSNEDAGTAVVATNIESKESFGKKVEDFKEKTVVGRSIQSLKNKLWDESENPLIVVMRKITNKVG

[13] = target: T7, Tim17 (S. cerevisiae (endogenous in yeast mitochondria)); experiment: native gel or EMSA; BN-PAGE of digitonin-solubilized mitochondria from FL and N+C cells; immunoblotting
[14] = target: T10, Tim23 (S. cerevisiae (endogenous in yeast mitochondria)), P32897; experiment: cross-linking; intact mitochondria from FL and N+C cells incubated with the amino group-specific crosslinker DSG; mitochondrial ATP levels altered beforehand where indicated; immunoblotting with antibodies to Tim16 or Tim23; conditions: remark: other sources report otherwise
T10 chain: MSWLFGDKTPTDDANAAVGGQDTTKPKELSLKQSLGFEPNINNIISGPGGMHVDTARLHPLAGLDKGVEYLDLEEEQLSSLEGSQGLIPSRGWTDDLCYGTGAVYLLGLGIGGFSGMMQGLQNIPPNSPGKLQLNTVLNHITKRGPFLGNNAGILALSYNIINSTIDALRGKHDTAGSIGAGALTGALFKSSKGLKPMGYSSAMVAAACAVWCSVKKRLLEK

binding [1]: no binding
Molecule: β subunit of FoF1 ATPase (from UniProt P00830 34-511)

binding [2]: binds
binding [3]: binds weakly
binding [4]: binds
binding [1]: binds
Molecule: mtHsp70 (from UniProt P0CS90 24-654)

binding [5]: no binding
B1: Tim44(211–431) (protein)
chain: NIESKESFGKKVEDFKEKTVVGRSIQSLKNKLWDESENPLIVVMRKITNKVGGFFAETESSRVYSQFKLMDPTFSNESFTRHLREYIVPEILEAYVKGDVKVLKKWFSEAPFNVYAAQQKIFKEQDVYADGRILDIRGVEIVSAKLLAPQDIPVLVVGCRAQEINLYRKKKTGEIAAGDEANILMSSYAMVFTRDPEQIDDDETEGWKILEFVRGGSRQFT

binding [6]: binds
binding [7]: binds
binding [8]: binds
binding [2]: binds
B2: Tim14(Pam18) (protein, UniProt Q07914 1-168)
chain: MSSQSNTGNSIEAPQLPIPGQTNGSANVTVDGAGVNVGIQNGSQGQKTGMDLYFDQALNYMGEHPVITGFGAFLTLYFTAGAYKSISKGLNGGKSTTAFLKGGFDPKMNSKEALQILNLTENTLTKKKLKEVHRKIMLANHPDKGGSPFLATKINEAKDFLEKRGISK

binding [9]: binds
binding [8]: binds
B3: Tim16(Pam16) (protein, UniProt P42949 1-149)
chain: MAHRAFIQVIITGTQVFGKAFAEAYRQAASQSVKQGATNASRRGTGKGEYGGITLDESCKILNIEESKGDLNMDKINNRFNYLFEVNDKEKGGSFYLQSKVYRAAERLKWELAQREKNAKAKAGDASTAKPPPNSTNSSGADNSASSNQ

binding [10]: binds
B4: Tim16(Pam16), P42949 1-149 (protein)
chain: MAHRAFIQVIITGTQVFGKAFAEAYRQAASQSVKQGATNASRRGTGKGEYGGITLDESCKILNIEESKGDLNMDKINNRFNYLFEVNDKEKGGSFYLQSKVYRAAERLKWELAQREKNAKAKAGDASTAKPPPNSTNSSGADNSASSNQ

binding [11]: binds
B5: Pam17 (protein, UniProt P36147 15-197)
chain: ASQPSVTAAALRSTATTLPLRSYSQPASLQDSSILTWSDFFKLRKQQRRINVGSSLFTALLGCNVSWAYLSTMEIDPTQMLFGFDPLTVISAGIIASGALGYLLGPIVGSQVFKLSHNQQLAQFNNKNKEFLKHIINNRVDASSQSFSNPVPDYYGEKIGSLKEYKQWLRDCHAYAKKAKEFL

binding [12]: no binding
B6: C-terminal domain of Tim44 with helices A1 and A2, Tim44(210–431), in N+C mitochondria (domain or fragment, UniProt Q01852 210-431)
chain: TNIESKESFGKKVEDFKEKTVVGRSIQSLKNKLWDESENPLIVVMRKITNKVGGFFAETESSRVYSQFKLMDPTFSNESFTRHLREYIVPEILEAYVKGDVKVLKKWFSEAPFNVYAAQQKIFKEQDVYADGRILDIRGVEIVSAKLLAPQDIPVLVVGCRAQEINLYRKKKTGEIAAGDEANILMSSYAMVFTRDPEQIDDDETEGWKILEFVRGGSRQFT

binding [7]: binds
binding [8]: binds
B7: Tim17 (protein, UniProt P39515 1-158)
chain: MSADHSRDPCPIVILNDFGGAFAMGAIGGVVWHGIKGFRNSPLGERGSGAMSAIKARAPVLGGNFGVWGGLFSTFDCAVKAVRKREDPWNAIIAGFFTGGALAVRGGWRHTRNSSITCACLLGVIEGVGLMFQRYAAWQAKPMAPPLPEAPSSQPLQA

binding [13]: binds
binding [7]: binds
binding [9]: binds
B8: Tim23 (protein, UniProt P32897 1-222)
chain: MSWLFGDKTPTDDANAAVGGQDTTKPKELSLKQSLGFEPNINNIISGPGGMHVDTARLHPLAGLDKGVEYLDLEEEQLSSLEGSQGLIPSRGWTDDLCYGTGAVYLLGLGIGGFSGMMQGLQNIPPNSPGKLQLNTVLNHITKRGPFLGNNAGILALSYNIINSTIDALRGKHDTAGSIGAGALTGALFKSSKGLKPMGYSSAMVAAACAVWCSVKKRLLEK

binding [14]: binds
B9: Tim23, P32897 1-222 (protein)
chain: MSWLFGDKTPTDDANAAVGGQDTTKPKELSLKQSLGFEPNINNIISGPGGMHVDTARLHPLAGLDKGVEYLDLEEEQLSSLEGSQGLIPSRGWTDDLCYGTGAVYLLGLGIGGFSGMMQGLQNIPPNSPGKLQLNTVLNHITKRGPFLGNNAGILALSYNIINSTIDALRGKHDTAGSIGAGALTGALFKSSKGLKPMGYSSAMVAAACAVWCSVKKRLLEK
